# Results: the supplement of paper PMC8728848
# The list shows a part of the results.
# Tests used:
# Experiment in all cases: glycan array binding signal (z-score within array); higher = stronger binding
# Conditions in all cases: glycan notation: IUPAC condensed, linker removed
# Fuc(a1-2)Gal = target: Fuc(a1-2)Gal
# Method in brief: (§1)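 The binding signal is a Z-score computed within each array. Data were drawn from 3228 arrays in the Consortium for Functional Glycomics database, restricted to those with a known protein sequence. Scores were averaged over arrays of the same protein sequence at different concentrations or buffers, and over linkers, and negative values can be taken as non-binding.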
# Fuc(a1-2)Gal(b1-3)GalNAc = target: Fuc(a1-2)Gal(b1-3)GalNAc
# Method in brief: as §1
# [1] = target: Fuc(a1-2)Gal(b1-3)GalNAc(a1-3)[Fuc(a1-2)]Gal(b1-4)Glc
# Method in brief: as §1
# [2] = target: Fuc(a1-2)Gal(b1-3)GalNAc(a1-3)[Fuc(a1-2)]Gal(b1-4)GlcNAc
# Method in brief: as §1
# [3] = target: Fuc(a1-2)Gal(b1-3)GalNAc(b1-3)Gal
# Method in brief: as §1
# [4] = target: Fuc(a1-2)Gal(b1-3)GalNAc(b1-3)Gal(a1-4)Gal(b1-4)Glc
# Method in brief: as §1
# [5] = target: Fuc(a1-2)Gal(b1-3)GalNAc(b1-4)[Neu5Ac(a2-3)]Gal(b1-4)Glc
# Method in brief: as §1
# Fuc(a1-2)Gal(b1-3)GlcNAc = target: Fuc(a1-2)Gal(b1-3)GlcNAc
# Method in brief: as §1
# [6] = target: Fuc(a1-2)Gal(b1-3)GlcNAc(b1-2)Man(a1-3)[Fuc(a1-2)Gal(b1-3)GlcNAc(b1-2)Man(a1-6)]Man(b1-4)GlcNAc(b1-4)GlcNAc
# Method in brief: as §1
# [7] = target: Fuc(a1-2)Gal(b1-3)GlcNAc(b1-2)Man(a1-3)[Fuc(a1-2)Gal(b1-3)GlcNAc(b1-2)Man(a1-6)]Man(b1-4)GlcNAc(b1-4)[Fuc(a1-6)]GlcNAc
# Method in brief: as §1
# [8] = target: Fuc(a1-2)Gal(b1-3)GlcNAc(b1-3)Gal(b1-4)Glc
# Method in brief: as §1
# [9] = target: Fuc(a1-2)Gal(b1-3)GlcNAc(b1-3)GalNAc
# Method in brief: as §1
# [10] = target: Fuc(a1-2)Gal(b1-3)GlcNAc(b1-3)[Fuc(a1-3)[Gal(b1-4)]GlcNAc(b1-6)]Gal(b1-4)Glc
# Method in brief: as §1
# [11] = target: Fuc(a1-2)Gal(b1-3)GlcNAc(b1-3)[Gal(b1-4)GlcNAc(b1-6)]Gal(b1-4)Glc
# Method in brief: as §1
# [12] = target: Fuc(a1-2)Gal(b1-3)GlcNAc(b1-3)[Neu5Ac(a2-6)Gal(b1-4)GlcNAc(b1-6)]Gal(b1-4)Glc
# Method in brief: as §1
# [13] = target: Fuc(a1-2)Gal(b1-3)[Fuc(a1-4)]GlcNAc
# Method in brief: as §1
# [14] = target: Fuc(a1-2)Gal(b1-3)[Fuc(a1-4)]GlcNAc(b1-2)Man(a1-3)[Fuc(a1-2)Gal(b1-3)[Fuc(a1-4)]GlcNAc(b1-2)Man(a1-6)]Man(b1-4)GlcNAc(b1-4)GlcNAc
# Method in brief: as §1
# [15] = target: Fuc(a1-2)Gal(b1-3)[Fuc(a1-4)]GlcNAc(b1-3)[Fuc(a1-3)[Gal(b1-4)]GlcNAc(b1-6)]Gal(b1-4)Glc
# Method in brief: as §1
# [16] = target: Fuc(a1-2)Gal(b1-3)[Fuc(a1-4)]GlcNAc(b1-3)[Gal(b1-4)GlcNAc(b1-6)]Gal(b1-4)Glc
# Method in brief: as §1
# Fuc(a1-2)Gal(b1-4)Glc = target: Fuc(a1-2)Gal(b1-4)Glc
# Method in brief: as §1
# Fuc(a1-2)Gal(b1-4)Glc6S = target: Fuc(a1-2)Gal(b1-4)Glc6S
# Method in brief: as §1
# Fuc(a1-2)Gal(b1-4)GlcNAc = target: Fuc(a1-2)Gal(b1-4)GlcNAc
# Method in brief: as §1
# [17] = target: Fuc(a1-2)Gal(b1-4)GlcNAc(b1-2)Man(a1-3)[Fuc(a1-2)Gal(b1-4)GlcNAc(b1-2)Man(a1-6)]Man(b1-4)GlcNAc(b1-4)GlcNAc
# Method in brief: as §1
# [18] = target: Fuc(a1-2)Gal(b1-4)GlcNAc(b1-2)Man(a1-3)[Fuc(a1-2)Gal(b1-4)GlcNAc(b1-2)Man(a1-6)]Man(b1-4)GlcNAc(b1-4)[Fuc(a1-6)]GlcNAc
# Method in brief: as §1
# [19] = target: Fuc(a1-2)Gal(b1-4)GlcNAc(b1-2)[Fuc(a1-2)Gal(b1-4)GlcNAc(b1-4)]Man(a1-3)[Fuc(a1-2)Gal(b1-4)GlcNAc(b1-2)Man(a1-6)]Man(b1-4)GlcNAc(b1-4)GlcNAc
# Method in brief: as §1
# [20] = target: Fuc(a1-2)Gal(b1-4)GlcNAc(b1-3)Gal(b1-4)GlcNAc
# Method in brief: as §1
# [21] = target: Fuc(a1-2)Gal(b1-4)GlcNAc(b1-3)Gal(b1-4)GlcNAc(b1-3)Gal(b1-4)GlcNAc
# Method in brief: as §1
# [22] = target: Fuc(a1-2)Gal(b1-4)GlcNAc(b1-3)GalNAc
# Method in brief: as §1
# [23] = target: Fuc(a1-2)Gal(b1-4)GlcNAc(b1-3)[Fuc(a1-2)Gal(b1-4)GlcNAc(b1-6)]GalNAc
# Method in brief: as §1
# [24] = target: Fuc(a1-2)Gal(b1-4)GlcNAc6S
# Method in brief: as §1
# [25] = target: Fuc(a1-2)Gal(b1-4)[Fuc(a1-3)]GlcNAc
# Method in brief: as §1
# [26] = target: Fuc(a1-2)Gal(b1-4)[Fuc(a1-3)]GlcNAc(b1-2)Man(a1-3)[Fuc(a1-2)Gal(b1-4)[Fuc(a1-3)]GlcNAc(b1-2)Man(a1-6)]Man(b1-4)GlcNAc(b1-4)GlcNAc
# Method in brief: as §1
# [27] = target: Fuc(a1-2)Gal(b1-4)[Fuc(a1-3)]GlcNAc(b1-2)[Fuc(a1-2)Gal(b1-4)[Fuc(a1-3)]GlcNAc(b1-4)]Man(a1-3)[Fuc(a1-2)Gal(b1-4)[Fuc(a1-3)]GlcNAc(b1-2)Man(a1-6)]Man(b1-4)GlcNAc(b1-4)GlcNAc
# Method in brief: as §1
# [28] = target: Fuc(a1-2)Gal(b1-4)[Fuc(a1-3)]GlcNAc(b1-3)Gal(b1-4)[Fuc(a1-3)]GlcNAc
# Method in brief: as §1
# [29] = target: Fuc(a1-2)Gal(b1-4)[Fuc(a1-3)]GlcNAc(b1-3)Gal(b1-4)[Fuc(a1-3)]GlcNAc(b1-3)Gal(b1-4)[Fuc(a1-3)]GlcNAc
# Method in brief: as §1
# [30] = target: Fuc(a1-2)Gal(b1-4)[Fuc(a1-3)]GlcNAc(b1-3)GalNAc
# Method in brief: as §1
# Fuc(a1-2)Gal6S(b1-4)Glc = target: Fuc(a1-2)Gal6S(b1-4)Glc
# Method in brief: as §1
# [31] = target: Fuc(a1-2)Gal6S(b1-4)Glc6S
# Method in brief: as §1
# [32] = target: Fuc(a1-2)Gal6S(b1-4)GlcNAc
# Method in brief: as §1
# Fuc(a1-2)[Gal(a1-3)]Gal = target: Fuc(a1-2)[Gal(a1-3)]Gal
# Method in brief: as §1
# [33] = target: Fuc(a1-2)[Gal(a1-3)]Gal(b1-3)GalNAc
# Method in brief: as §1
# [34] = target: Fuc(a1-2)[Gal(a1-3)]Gal(b1-3)GlcNAc
# Method in brief: as §1
# [35] = target: Fuc(a1-2)[Gal(a1-3)]Gal(b1-3)GlcNAc(b1-2)Man(a1-3)[Fuc(a1-2)[Gal(a1-3)]Gal(b1-3)GlcNAc(b1-2)Man(a1-6)]Man(b1-4)GlcNAc(b1-4)GlcNAc
# Method in brief: as §1
# [36] = target: Fuc(a1-2)[Gal(a1-3)]Gal(b1-3)GlcNAc(b1-2)Man(a1-3)[Fuc(a1-2)[Gal(a1-3)]Gal(b1-3)GlcNAc(b1-2)Man(a1-6)]Man(b1-4)GlcNAc(b1-4)[Fuc(a1-6)]GlcNAc
# Method in brief: as §1
# [37] = target: Fuc(a1-2)[Gal(a1-3)]Gal(b1-3)GlcNAc(b1-3)GalNAc
# Method in brief: as §1
binder,measurement,setting,value
"CV-2L (Chromobacterium violaceum), Q7NX84 (protein) MAQQGVFTLPARINFGVTVLVNSAATQHVEIFVDNEPRAAFSGVGTGDNNLGTKVINSGSGNVRVQITANGRQSDLVSSQLVLANKLNLAVVGSEDGTDMDYNDSIVILNWPLG",glycan array binding signal (z-score),Fuc(a1-2)Gal,3.99
same,glycan array binding signal (z-score),Fuc(a1-2)Gal(b1-3)GalNAc,0.156
same,glycan array binding signal (z-score),[1],1.07
same,glycan array binding signal (z-score),[2],0.322
same,glycan array binding signal (z-score),[3],-0.03
same,glycan array binding signal (z-score),[4],2.56
same,glycan array binding signal (z-score),[5],0.162
same,glycan array binding signal (z-score),Fuc(a1-2)Gal(b1-3)GlcNAc,2.22
same,glycan array binding signal (z-score),[6],4.01
same,glycan array binding signal (z-score),[7],0.729
same,glycan array binding signal (z-score),[8],2.45
same,glycan array binding signal (z-score),[9],1.9
same,glycan array binding signal (z-score),[10],1.36
same,glycan array binding signal (z-score),[11],2.83
same,glycan array binding signal (z-score),[12],2.61
same,glycan array binding signal (z-score),[13],0.884
same,glycan array binding signal (z-score),[14],-0.198
same,glycan array binding signal (z-score),[15],0.473
same,glycan array binding signal (z-score),[16],0.422
same,glycan array binding signal (z-score),Fuc(a1-2)Gal(b1-4)Glc,3.31
same,glycan array binding signal (z-score),Fuc(a1-2)Gal(b1-4)Glc6S,4.43
same,glycan array binding signal (z-score),Fuc(a1-2)Gal(b1-4)GlcNAc,5.39
same,glycan array binding signal (z-score),[17],5.17
same,glycan array binding signal (z-score),[18],1.05
same,glycan array binding signal (z-score),[19],1.84
same,glycan array binding signal (z-score),[20],5.68
same,glycan array binding signal (z-score),[21],5.57
same,glycan array binding signal (z-score),[22],0.745
same,glycan array binding signal (z-score),[23],5.71
same,glycan array binding signal (z-score),[24],5.42
same,glycan array binding signal (z-score),[25],0.928
same,glycan array binding signal (z-score),[26],-0.31
same,glycan array binding signal (z-score),[27],-0.097
same,glycan array binding signal (z-score),[28],1.15
same,glycan array binding signal (z-score),[29],1.04
same,glycan array binding signal (z-score),[30],-0.3
same,glycan array binding signal (z-score),Fuc(a1-2)Gal6S(b1-4)Glc,3
same,glycan array binding signal (z-score),[31],4.37
same,glycan array binding signal (z-score),[32],3.31
same,glycan array binding signal (z-score),Fuc(a1-2)[Gal(a1-3)]Gal,-0.256
same,glycan array binding signal (z-score),[33],-0.335
same,glycan array binding signal (z-score),[34],-0.322
same,glycan array binding signal (z-score),[35],-0.292
same,glycan array binding signal (z-score),[36],-0.09
same,glycan array binding signal (z-score),[37],-0.351
